The values that follow come from PMC4336329 (PLoS ONE, 2015).

Out of some 310,000 compounds screened, about 2,200 (0.71%) showed an effect of 50% or more. Effects have a minus sign here. Some of the results follow.

Chain of human ether-à-go-go-related gene (hERG) potassium channel (Q12809 whole entry, looked up): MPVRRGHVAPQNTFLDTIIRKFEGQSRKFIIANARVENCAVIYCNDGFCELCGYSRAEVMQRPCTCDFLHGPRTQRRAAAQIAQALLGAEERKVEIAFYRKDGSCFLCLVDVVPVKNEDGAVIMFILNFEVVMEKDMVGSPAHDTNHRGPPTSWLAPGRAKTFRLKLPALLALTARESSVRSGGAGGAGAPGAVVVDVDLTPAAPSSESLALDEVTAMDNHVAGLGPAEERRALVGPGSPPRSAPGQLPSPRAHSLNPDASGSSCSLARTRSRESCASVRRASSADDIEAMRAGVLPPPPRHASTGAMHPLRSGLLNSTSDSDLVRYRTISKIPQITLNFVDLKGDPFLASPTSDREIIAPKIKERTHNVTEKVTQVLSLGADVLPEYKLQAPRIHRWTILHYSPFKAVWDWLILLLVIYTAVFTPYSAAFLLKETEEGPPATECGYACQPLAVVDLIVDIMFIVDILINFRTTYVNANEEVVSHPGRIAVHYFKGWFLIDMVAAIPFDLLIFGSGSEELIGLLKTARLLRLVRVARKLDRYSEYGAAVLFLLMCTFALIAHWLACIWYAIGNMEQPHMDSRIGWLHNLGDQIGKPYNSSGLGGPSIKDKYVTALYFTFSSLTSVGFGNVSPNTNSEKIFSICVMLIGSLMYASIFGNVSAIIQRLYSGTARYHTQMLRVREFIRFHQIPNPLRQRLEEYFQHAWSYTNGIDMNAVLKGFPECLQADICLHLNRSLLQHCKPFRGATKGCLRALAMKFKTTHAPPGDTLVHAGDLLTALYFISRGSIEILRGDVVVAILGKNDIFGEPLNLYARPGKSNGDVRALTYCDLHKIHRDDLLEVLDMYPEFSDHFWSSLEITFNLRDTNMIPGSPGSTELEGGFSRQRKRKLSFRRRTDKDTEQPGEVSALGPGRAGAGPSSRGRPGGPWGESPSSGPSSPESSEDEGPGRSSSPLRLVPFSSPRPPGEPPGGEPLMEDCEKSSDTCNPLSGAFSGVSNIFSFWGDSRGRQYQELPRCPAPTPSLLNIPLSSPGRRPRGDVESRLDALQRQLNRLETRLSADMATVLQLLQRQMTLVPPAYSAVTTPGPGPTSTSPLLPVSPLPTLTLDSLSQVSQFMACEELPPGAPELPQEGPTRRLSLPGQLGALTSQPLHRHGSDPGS

This assay has as its target human ether-à-go-go-related gene (hERG) potassium channel (human, UniProt Q12809). Kind of assay: primary screen, population patch clamp on CHO cells stably expressing hERG.
In the case of `COc1ccc(CNC(=O)c2cncc(Br)c2)cc1`, the “hERG current change (%, negative = inhibition) at 1uM” value is 10.2%.
Regarding `COC(=O)c1ccc(C2Nc3ccccc3NC3=C2C(=O)CC(C)(C)C3)cc1` (stereo not shown), the “hERG current change (%, negative = inhibition) at 1uM” value is listed as 10.2%.
The same measure for `CCOc1cc(/C=N/n2cnnc2)cc(Br)c1O`: -4.42%.
Then `NC(=O)CN1CCOCCOCCN(CC(N)=O)CCOCC1`, with 2.84%.
The same measure for `Cc1nc2ccc(NC(=O)c3ccccc3)cc2s1`: 5.88%.
In the case of `COc1cc(/C=N/NS(=O)(=O)c2ccc3ccccc3c2)ccc1OCc1ccc(C(=O)O)cc1`, the “hERG current change (%, negative = inhibition) at 1uM” value came to 9.68%.
`O=C(NN1C(=O)c2ccccc2NC1c1ccco1)c1ccc(Br)cc1` (stereo not shown): the “hERG current change (%, negative = inhibition) at 1uM” value was -50.4%.
The same measure for `CCOC(=O)C(C)/C(C)=N/NC(=O)c1cc2ccccc2cc1O` (stereo not shown): 3.52%; for `COc1ccc(CCNC(=O)c2ccc(N3CCCC3=O)cc2)cc1`: -1.28%.
The same measure for `CC(OC(=O)C1COc2ccccc2O1)C(=O)N(C)c1ccccc1` (stereo not shown): 5.21%.
The same measure for `Cc1cccc(NC(=S)N2CCCCCC2)c1`: 11.7%; for `COc1cc(CCCN2C(=S)NC[C@@H]2Cc2ccccc2)cc(OC)c1OC`: -5.82%; for `COc1ccc(NC(=S)NC2CC3CCC2C3)c(OC)c1` (stereo not shown): 14.3%.
In the case of `C=CCc1cc(OC)c2c(c1)OCO2`, the “hERG current change (%, negative = inhibition) at 1uM” value is on record as 12.2%.
Then `O=C(NCCS(=O)(=O)c1ccc(Br)cc1)c1c(F)cccc1F`, with 12.9%; and `O=P(Oc1ccccc1)(Oc1ccccc1)c1ccccc1`, with -2.75%; and `COc1ccc(N2CCN(C(=O)CSc3ncccc3-c3nc4ccccc4[nH]3)CC2)cc1`, with -26.6%.
Then `COc1cc(NC(=O)CNC(c2ccccc2)c2ccccc2)cc(OC)c1OC`, with 11.8%; and `CC(=O)CCS(=O)(=O)c1ccc(Oc2ccc(S(=O)(=O)CCC(C)=O)cc2)cc1`, with 9.57%; and `CC1=C(C#N)C(Nc2cccc(C)n2)(C(F)(F)F)C(=O)N1` (stereo not shown), with 4.25%.
The same measure for `COC(=O)c1ccc2nc(NC(=O)CSCC(=O)OCC(=O)c3ccccc3)sc2c1`: 3.62%; for `COc1ccc(C(=S)N2CCN(c3ccccc3Cl)CC2)cc1OC`: 2.51%; for `CCn1c(SCC(=O)Nc2ccc(Br)cn2)nnc1C1CC1`: -0.833%.
Consider `CCc1cc(C(c2ccc(OC)c(OC)c2)N2CCOCC2)c(NC(=O)c2ccccc2)s1` (stereo not shown), for which the “hERG current change (%, negative = inhibition) at 1uM” value was 7.95%.
For the compound `COc1ccc(-c2cc(C(=O)Nc3ccccc3N3CCOCC3)c3ccccc3n2)cc1OC`, the “hERG current change (%, negative = inhibition) at 1uM” value came out at 8.56%.
On to `CCOc1cc(C(=O)N2CCCC2)cc(OCC)c1OCC`, for which the “hERG current change (%, negative = inhibition) at 1uM” value is 11.3%.
With `C=CCN=C1N[C@@H](c2ccccc2)C(C(=O)OC)=C(C)N1CCOC`, the “hERG current change (%, negative = inhibition) at 1uM” value is -1.41%.
The same measure for `O=C(CSc1nc(O)cc(=O)[nH]1)Nc1ccc2c(c1)CCC2`: 18.4%; for `CCOc1ccccc1NC(=O)CN1CCCCCC1.Cl`: 22.3%; for `COc1ccc(N(C(=O)c2ccccc2C)S(=O)(=O)c2cccs2)cc1`: 11.2%.
The same measure for `O=C(NN1CCOCC1)c1ccc(Cl)c(Cl)c1`: -13.9%; for `CC(C(=O)OCC(=O)c1cccc([N+](=O)[O-])c1)N1C(=O)C2C3C=CC(C3)C2C1=O` (stereo not shown): 9.72%; for `CCCn1c(C)nc2c(c1=O)c1nc3ccccc3nc1n2CCC1=CCCCC1`: 14.4%.
The same measure for `O=C(O)c1ccc2cccnc2c1O`: 11.5%; for `COc1ccc(Cl)cc1-n1c(C)cc(C(=O)OCC(=O)N2CC(=O)Nc3ccccc32)c1C`: 4.99%; for `COC(=O)c1cc2ccccc2c(-c2c(O)ccc3ccccc23)c1O`: -2.98%.
`CC(=O)NC(Cc1c[nH]c2ccccc12)C(=O)NCCc1ccccn1` (stereo not shown): the “hERG current change (%, negative = inhibition) at 1uM” value came out at 17.5%.
The same measure for `Cn1c(OCc2ccc3c(c2)OCO3)nc2c1c(=O)n(Cc1cccc(Cl)c1)c(=O)n2C`: 8.06%; for `CC(=O)c1ccc(OCC(=O)N2CCCC(N3CCN(c4ccccc4C)CC3)C2)cc1` (stereo not shown): -42.7%.
The same measure for `CCOc1ccc(-c2nn(-c3ccccc3)cc2/C=C2\SC(=S)N(Cc3ccco3)C2=O)cc1`: 11.1%; for `CCOC(=O)c1c(C)[nH]c(C)c1S(=O)(=O)NCCN1CCN(c2cc(Cl)ccc2C)CC1`: 17.8%; for `Cc1ccc(CONC(=O)c2cccc(C)c2)cc1`: -4.64%.
On to `COC(=O)c1ccccc1S(=O)(=O)N1CCC(C(=O)OC(C)C(=O)NC(N)=O)CC1` (stereo not shown), for which the “hERG current change (%, negative = inhibition) at 1uM” value was 15.8%.
The same measure for `Cn1c(C(=O)NC2CC2)cc(=O)n(C)c1=O`: 7.36%; for `O=C1CN(C(=O)c2cc3ccccc3o2)c2ccccc2N1`: 1.56%; for `COc1ccccc1NC(=O)C(Cc1ccc(Cl)cc1)c1nn[nH]n1` (stereo not shown): 3.47%.
Then `COc1ccc(NC(=S)NCc2ccccc2Cl)c(OC)c1`, with 9.83%; and `CNS(=O)(=O)c1ccc(C(=O)NCC(=O)NCCc2ccc3c(c2)OCCO3)cc1`, with 9.8%.
`O=C(COc1ccccc1)NCC(=O)N/N=C/C=C/c1ccccc1`: the “hERG current change (%, negative = inhibition) at 1uM” value is 8.13%.
Turning to `Cc1cc(OCC(=O)NCCCN2CCCC2=O)c2c(C)cc(=O)oc2c1`, the “hERG current change (%, negative = inhibition) at 1uM” value came out at 19%.
Then `COC(=O)/C=c1\sc2ncnn2c1=O`, with 8.57%.
The same measure for `O=C(NC(=S)Nc1cccc2[nH]ncc12)c1ccccc1`: 12.8%; for `O=C(CC(=O)N/N=C/c1c(Cl)cccc1Cl)NCc1cccnc1`: 15.3%.
`COc1ccccc1/C=C/C=N/n1c(C)nnc1C`: the “hERG current change (%, negative = inhibition) at 1uM” value was 5.85%.
Then `CCc1noc(C)c1C(=O)NNC(=O)c1ccc(F)cc1`, with 16.7%.
As to `CCn1nnnc1SCC(=O)Nc1nc(-c2cccs2)cs1`, the “hERG current change (%, negative = inhibition) at 1uM” value was determined as 8.07%.
The same measure for `Cc1nc(C)c(C(=O)O)c(-c2ccsc2)c1C(=O)O`: 8.89%.
The same measure for `Cc1ccc(CC(=O)Nc2ncc([N+](=O)[O-])s2)cc1`: 16.3%.
